This test concerns the target T1, human OX40 on cells (CHO-K1/hu OX40) (human, UniProt P43489 29-277).
T1 construct: whole, on cells; Also used here for OX40 on the HEK293/OX40/NF-kb reporter cells and on human T cells in the functional assays; also called CHO-K1/OX40; human OX40 cells
T1 sequence (looked up): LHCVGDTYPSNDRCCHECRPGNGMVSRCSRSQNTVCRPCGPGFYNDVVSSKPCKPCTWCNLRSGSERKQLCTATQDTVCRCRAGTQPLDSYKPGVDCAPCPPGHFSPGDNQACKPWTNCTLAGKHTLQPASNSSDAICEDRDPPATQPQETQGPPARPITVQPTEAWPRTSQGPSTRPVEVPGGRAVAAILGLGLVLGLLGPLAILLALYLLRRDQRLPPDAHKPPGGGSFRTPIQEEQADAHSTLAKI
The test is described as follows: FACS, CHO-K1/hu OX40 cells. The procedure:
This example is intended to investigate the in vitro binding activity of OX40×TAA bispecific antibodies obtained in Example 9 to human OX40. The antibody binding assay at the cellular level was performed using a CHO-K1 cell strain overexpressing human OX40 (CHO-K1/hu OX40). Briefly, CHO-K1/hu OX40 cells were digested, resuspended in an F12K complete medium, and washed with PBS, and the cell density was adjusted to 1×10⁶ cells/ml with PBS. The cells were seeded in a 96-well V-bottom plate (Corning, #3894) at 100 μL/well, followed by the addition of test antibodies diluted in a 3-fold gradient at concentrations that were 2 times the final concentrations at 100 μL/well. The cells were incubated at 4° C. for 1 h away from light. Thereafter, the cells in each well were rinsed twice with 100 μL of pre-cooled PBS, and centrifuged at 500 g at 4° C. for 5 min, and then the supernatant was discarded. […] The plate was incubated away from light at 4° C. for 30 min. The cells in each well were rinsed twice with 100 μL of pre-cooled PBS, and centrifuged at 500 g at 4° C. for 5 min, and then the supernatant was discarded. Finally, the cells in each well were resuspended in 200 μL of pre-cooled PBS, and the fluorescence signal values were read using NovoCyte flow cytometer (ACEA Biosciences).

From patent publication US20230295324A1 (published 2023) come the findings set out here.

B1: PR004277 (bispecific antibody)
chain 1: QVQLVESGGGVVQPGRSLRLSCAASGFTFRSFGMHWVRQAPGKGLEWVAVISYDASNEYYADSVKGRFIISRDNSKDTLYLQMNSLRAGDTAVYYCAKGGGLRWYFAYWGQGTLVTVSSASTKGPSVFPLAPSSKSTSGGTAALGCLVKDYFPEPVTVSWNSGALTSGVHTFPAVLQSSGLYSLSSVVTVPSSSLGTQTYICNVNHKPSNTKVDKKVEPKSC
chain 2: EIVMTQSPATLSVSPGERATLSCRASQSISSNLGWYQQKPGQAPRLLIYGASTRATGIPARFSGSGSGTEFTLTISSLQSEDFAVYYCQQYQSWPPLTFGGGTKVEIKRTVAAPSVFIFPPSDEQLKSGTASVVCLLNNFYPREAKVQWKVDNALQSGNSQESVTEQDSKDSTYSLSSTLTLSKADYEKHKVYACEVTHQGLSSPVTKSFNRGECEPKSSDKTHTPPPPPEVQLLESGGGLVQPGGSLRLSCAASGFTFSSYAMSWVRQAPGKGLEWVSAISGRGGSTFYADSVRGRFTISRDNSKNTLYLQMNSLRAEDTAMYYCVDGTTGTTDVDYWGQGTLVTVSS[sequence of human IgG1 Fc with changes not given]
notes: Fab of PR002408, VH of PR002067, L1 H1_15, L2 human IgG1 hinge (C220S); human IgG1 Fc (L234A, L235A); also called B7H4xOX40 bispecific antibody (Fab-HCAb)
For the molecule B1, a half-maximal effect (EC50) was put at 3.46 nM and the “Maximum MFI” value is 274000 MFI.

B2: PR004276 (bispecific antibody, human IgG1, kappa)
light: EIVMTQSPATLSVSPGERATLSCRASQSISSNLGWYQQKPGQAPRLLIYGASTRATGIPARFSGSGSGTEFTLTISSLQSEDFAVYYCQQYQSWPPLTFGGGTKVEIKRTVAAPSVFIFPPSDEQLKSGTASVVCLLNNFYPREAKVQWKVDNALQSGNSQESVTEQDSKDSTYSLSSTLTLSKADYEKHKVYACEVTHQGLSSPVTKSFNRGEC
heavy: QVQLVESGGGVVQPGRSLRLSCAASGFTFRSFGMHWVRQAPGKGLEWVAVISYDASNEYYADSVKGRFIISRDNSKDTLYLQMNSLRAGDTAVYYCAKGGGLRWYFAYWGQGTLVTVSSASTKGPSVFPLAPSSKSTSGGTAALGCLVKDYFPEPVTVSWNSGALTSGVHTFPAVLQSSGLYSLSSVVTVPSSSLGTQTYICNVNHKPSNTKVDKKV[sequence of human IgG1 Fc with changes not given]EPKSSDKTHTPPPPPRTEVQLLESGGGLVQPGGSLRLSCAASGFTFSSYAMSWVRQAPGKGLEWVSAISGRGGSTFYADSVRGRFTISRDNSKNTLYLQMNSLRAEDTAMYYCVDGTTGTTDVDYWGQGTLVTVSS
notes: IgG-VH tetravalent symmetric structure: PR002408 IgG (anti-B7H4) with the VH of PR002067 via linker H1_15-RT; human IgG1 Fc (L234A, L235A); also called B7H4xOX40 bispecific antibody
B2: the EC50 was found to be 2.8 nM and the “Maximum MFI” value was 282000 MFI.
